Results from PubChem BioAssay AID504706 (National Center for Advancing Translational Sciences (NCATS), 2011).
Screen size: about 320,000 compounds; about 200 (0.062%) were called active. Inconclusive results, whose numbers are uncertain, are shown with a selection of clear calls. Calls follow the shape of the dose curve; as a rule, active = well fitted activation curve with a large enough effect; inconclusive = small, poorly fitted or top-dose-only effect; inactive = no such curve, though single readings can be large or run the other way. No potency is given beside an inconclusive call; the fits are too rough.

Test: qHTS assay for re-activators of p53 using a Luc reporter; also: nearly all actives have a fitted effect of over 45% in size
Settings: H1299 p53-A138V BP100-luciferase reporter, luminescence, 24 h; series mostly up to 92.2 µM
In short: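 p53-null H1299 cells stably carrying temperature-sensitive p53-A138V and a BP100-luciferase reporter were pinned with compounds (4-point, 1:5 series) and held 24 hrs at 37 deg C. Luminescence was read 10 min after detection reagent.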
Potency is read from the fitted curve at half-maximal effect; tags tell the direction and shape of the fitted curve.

With `O=C(Nc1ccn(Cc2ccccc2F)n1)c1ccc(COc2ccc(Cl)cc2Cl)o1` as the molecule, how does the Potency read?
Its Potency is inconclusive [activator, single point].

For `Cc1ccc(O)c(C(=O)c2cnn(-c3ccccc3)c2)c1`, which Potency is on record?
The Potency was inconclusive [activator, partial curve, poor fit].

For `COc1ccc(CN(C)C(=O)c2ccc(OCC(=O)N3CCOCC3)c(OC)c2)cc1`, which Potency is on record?
The Potency was inconclusive [activator, single point].

Which Potency does the source give for `Cc1cc(N2CCCCC2)nc2ccc(NC(=O)c3ccc(Br)o3)cc12` here?
The Potency was “inactive”.

For `Cc1ccc(C(=O)N/C(=C\c2ccco2)C(=O)NCCCn2ccnc2)cc1`, which Potency is on record?
Its Potency is “inactive”.

For `CCn1nnc(NC(=O)CSc2ccc(Cl)cc2)n1`, which Potency is on record?
Its Potency is “inactive”.

With `CC(C)Sc1nc(NCc2ccco2)c2c3c(sc2n1)COC(C)(C)C3` as the molecule, how does the Potency read?
The Potency was inconclusive [activator, partial curve, poor fit].

With `CC(C)Oc1cccc(C(=O)NC(=S)Nc2cccc(C(F)(F)F)c2)c1` as the molecule, how does the Potency read?
The Potency was “inactive”.

Which Potency does the source give for `Cn1ccc(C(=O)Nc2ccc(Br)cc2Br)n1` here?
The Potency was inconclusive [activator, partial curve, poor fit].

For `CC1(C)CC(=O)N(c2ccc(C#N)cc2)C(=O)C1`, which Potency is on record?
Its Potency is inconclusive [activator, full curve, poor fit].

With `COc1cc(OC)cc(-c2nc(-c3ccccc3OC)no2)c1` as the molecule, how does the Potency read?
The Potency was inconclusive [activator, partial curve, poor fit].

With `Cc1ccccc1OCC(=O)Nc1ccc2c(c1)ncn2C` as the molecule, how does the Potency read?
The Potency was inconclusive [activator, full curve, poor fit].

Which Potency does the source give for `C[C@]12C[C@H](O)[C@H]3[C@@H](CCC4=CC(=O)CC[C@@]43C)[C@@H]1CC[C@@H]2C(=O)CO` here?
The Potency was “inactive”.

For `CCOC(=O)c1[nH]c2ccc(F)cc2c1NC(=O)CN1CCN(C/C=C/c2ccccc2)CC1`, which Potency is on record?
The Potency was “inactive”.

Which Potency does the source give for `C=CCNC(=S)N(CC)c1cccc2ccccc12` here?
Its Potency is “inactive”.

With `c1ccc2c(NC3CCCC3)nnc(NC3CCCC3)c2c1` as the molecule, how does the Potency read?
The Potency was inconclusive [activator, partial curve, poor fit].

Which Potency does the source give for `Cc1cccc(Cn2c(N3CCN(CCO)CC3)nc3c2c(=O)[nH]c(=O)n3C)c1` here?
Its Potency is inconclusive [activator, single point].

For `O=C(N/N=C/c1cn(Cc2ccccc2)c2ccccc12)c1cccnc1`, which Potency is on record?
The Potency was “inactive”.

Which Potency does the source give for `CCN(CC)C(=O)CSc1nc2ccc(NC(=O)CSc3nnc(N)s3)cc2s1` here?
The Potency was “inactive”.

Which Potency does the source give for `COc1cccc(CC(=O)N2CCCC(CO)(Cc3ccc(F)cc3F)C2)c1` (stereo not given) here?
Its Potency is inconclusive [activator, single point].
